Laboratory results as given in PubChem BioAssay AID1030 (National Center for Advancing Translational Sciences (NCATS), 2008).
In all, about 220,000 compounds went through this assay and about 16,000 (7.3%) were called active. This list was built around the results that the source calls inconclusive (neither active nor inactive); the mix of calls is not that of the screen. Calls follow the shape of the dose curve; as a rule, active = well fitted inhibition curve with a large enough effect (not every such curve was filed as active); inconclusive = small, poorly fitted or top-dose-only effect, or another doubt; inactive = no such curve, though single readings can be large or run the other way. Potencies of inconclusive entries are left out as doubtful fits.

target: Aldehyde dehydrogenase 1A1 (Homo sapiens) (UniProt P00352); assay: qHTS Assay for Inhibitors of Aldehyde Dehydrogenase 1 (ALDH1A1); details: Purified ALDH1A1, NADH fluorescence, propionaldehyde substrate; series mostly up to 75.3 µM; activity, negative = inhibition: at the top concentration;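 as to activity, negative = inhibition: plate controls were no enzyme wells and a reference inhibitor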
UniProt P00352, sequence (P00352 whole entry, looked up): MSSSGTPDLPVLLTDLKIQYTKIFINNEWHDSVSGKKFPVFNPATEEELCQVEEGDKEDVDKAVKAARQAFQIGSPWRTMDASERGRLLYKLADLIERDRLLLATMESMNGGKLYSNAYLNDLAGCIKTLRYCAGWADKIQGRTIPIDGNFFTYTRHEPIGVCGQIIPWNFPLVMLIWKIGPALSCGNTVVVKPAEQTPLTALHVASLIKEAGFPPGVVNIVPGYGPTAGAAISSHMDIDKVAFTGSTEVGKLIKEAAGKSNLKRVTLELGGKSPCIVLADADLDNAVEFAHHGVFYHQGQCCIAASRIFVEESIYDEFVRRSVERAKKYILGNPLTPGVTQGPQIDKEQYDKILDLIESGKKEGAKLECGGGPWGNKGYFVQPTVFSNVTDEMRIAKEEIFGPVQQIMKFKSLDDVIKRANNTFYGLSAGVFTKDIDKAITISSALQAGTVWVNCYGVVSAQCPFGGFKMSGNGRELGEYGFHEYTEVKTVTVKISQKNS
Potency is read from the fitted curve at half-maximal effect; tags tell the direction and shape of the fitted curve.

Row | SMILES | activity, negative = inhibition | Potency
1 | COc1ccccc1NC(=O)C1=C(C)Nc2nnnn2C1c1cccc(Br)c1 (centres undefined) | inactive: -5.9% | –
2 | Cc1ccccc1OCCN1C(=O)NC2(CCc3ccccc32)C1=O (centres undefined) | inactive: 3.5% | –
3 | COc1ccc2c(CC#N)c[nH]c2c1 | inactive: 5.41% | –
4 | CC(=O)Nc1ccc(C(=O)OCC(=O)NC2CCCCCCC2)cc1 | – | inconclusive [inhibitor, single point]
5 | Cc1ccc(-c2nc3sc4c(c3c(=O)n2N)CC(C)(C)OC4)cc1 | – | inconclusive [inhibitor, single point]
6 | S=c1[nH]nc(-c2ccc3ccccc3n2)n1-c1ccc(Cl)cc1 | – | inconclusive [inhibitor, single point]
7 | CCn1c(SCc2ccc(C(=O)OC)o2)nc2sc3c(c2c1=O)CCCC3 | inactive: -7.48% | –
8 | CCC(c1nnnn1C1CCCC1)N1CCN(c2ccccc2F)CC1 (centres undefined) | – | inconclusive [inhibitor, partial curve]
9 | O=C(c1cccc(F)c1)N1CCC2(CC1)CN(c1ccc(-c3ccccc3)cc1)C2 | – | inconclusive [inhibitor, single point]
10 | O=C(NCc1cccnc1)c1ccc(-c2cccc(Cl)c2Cl)o1 | inactive: 10.9% | –
11 | Cc1cs/c(=N\N=C\c2ccc(O)cc2)n1Cc1ccco1 | – | inconclusive [inhibitor, single point]
12 | Clc1ccc(-c2nc3ccccc3[nH]2)cn1 | – | inconclusive [inhibitor, single point]
13 | COc1ncc2nc(-c3ccccc3)c(=O)n(-c3ccccc3)c2n1 | – | inconclusive [inhibitor, partial curve]
14 | CCCCC(O)(CCN1CCOCC1)c1ccc(Cl)cc1 (centres undefined) | – | active: 28.2 µM
15 | CCOC(=O)C(C)Sc1nc2c(c(-c3cccs3)c1C#N)CCC2 (centres undefined) | – | inconclusive [inhibitor, single point]
16 | CCC1=NN=C(c2ccc(F)cc2)C(c2c[nH]c3ccccc23)N1O (centres undefined) | – | inconclusive [inhibitor, single point]
17 | C[C@@H]1C=CCC(=O)OC[C@H](C)C(=O)OC[C@H]2O[C@H]1C=C[C@@H]2O | inactive: 1.27% [at 13.5 µM] | –
18 | COC(=O)/C(=C/c1c[nH]c2ccccc12)[N+](=O)[O-] | – | inconclusive [inhibitor, partial curve]
19 | CCOC(=O)c1c(N)sc2c(OCC)c(Br)ccc12 | inactive: 1.09% | –
20 | O=C(CCSc1ccccc1)OCn1nnc2ccccc2c1=O | inactive: -8.96% | –
21 | COc1cc(C(=O)NCCc2ccc(S(N)(=O)=O)cc2)cc(OC)c1OC | inactive: 11.7% | –
22 | CCOC(=O)c1ccccc1NC(=O)c1cn(CC)c2nc(C)ccc2c1=O | – | inconclusive [inhibitor, single point]
23 | Cc1nn(-c2ccccn2)c2c1C(c1ccccn1)C1=C(CCCC1=O)N2 (centres undefined) | – | inconclusive [inhibitor, partial curve]
24 | CCCCn1c2nc3ccccc3nc2c2c(=N)oc(C)nc21 | – | inconclusive [inhibitor, partial curve]
25 | CCOC(=O)/C(C(=O)Nc1ccc(Cl)cc1Cl)=C1/NC(C)(C)Cc2ccccc21 | – | active: 12.6 µM

Row | SMILES | activity, negative = inhibition | Potency
26 | Nc1ccc(N)c([N+](=O)[O-])c1 | – | inconclusive [inhibitor, single point]
27 | C=CCOc1c(Cl)cc(CNn2cn[nH]c2=S)cc1OC | – | inconclusive [inhibitor, single point]
28 | NC(=O)c1cc2cc(Cl)ccc2oc1=Nc1cccc(C(F)(F)F)c1 | inactive: 6.2% | –
29 | Cc1ccc(C(=O)NC(=S)Nn2cnnc2)cc1 | – | active: 20 µM
30 | Cc1ccc(-n2ccnc2SCC(=O)N(CC(C)C)C2CCS(=O)(=O)C2)c(C)c1 (centres undefined) | – | inconclusive [inhibitor, single point]
31 | COc1ccc(C2OC3C(CO)OC(n4cnc5c(=O)[nH]c(N)nc54)C3O2)cc1 (centres undefined) | inactive: 1.76% | –
32 | CN(C)Cc1nc2ccccc2c(=O)n1Cc1nc(-c2cc3ccccc3o2)cs1 | inactive: -3.45% | –
33 | Cc1cc(C(=O)Nc2sc3c(c2C#N)CCCCC3)cs1 | – | inconclusive [inhibitor, partial curve]
34 | COc1ccc(CCNC(=O)Cc2cccs2)cc1 | inactive: 2.34% | –
35 | Cc1occc1C(=O)Nc1nn[nH]n1 | inactive: 2.78% | –
36 | Cc1ccc(N2CCN(CCCN3C(=O)C4CCCN4C3=O)CC2)cc1 (centres undefined) | – | inconclusive [inhibitor, single point]
37 | CC(=O)c1cc(Cc2csc(C(C)=O)c2)cs1 | inactive: -3.08% | –
38 | CC1CN(c2cc(=O)n(Cc3ccc(F)cc3)c(=O)[nH]2)CC(C)O1 (centres undefined) | – | inconclusive [inhibitor, single point]
39 | CCN(CC)C(=O)Cn1cnc([N+](=O)[O-])n1 | inactive: 9.64% | –
40 | CC(C)(C)OC(=O)c1c(N)n(CCCN2CCCC2=O)c2nc3ccccc3nc12 | – | inconclusive [inhibitor, partial curve]
41 | CCSc1nnc(-c2cc3c(s2)-c2ccccc2CC3)o1 | – | inconclusive [inhibitor, partial curve]
42 | COc1ccc(C2C(C(=O)N3CCN(c4ccccc4F)CC3)c3ccccc3C(=O)N2C)cc1 (centres undefined) | – | active: 0.891 µM
43 | CCC1Oc2ccccc2N(CC(=O)Nc2ccc3c(c2)OCCO3)C1=O (centres undefined) | inactive: 5.94% | –
44 | C=CCn1c(C)cc(C(=O)COC(=O)/C=C/c2cccc(OC)c2)c1C | – | inconclusive [inhibitor, single point]
45 | COC1=C(OC)C(=O)C(C/C=C(\C)CC/C=C(\C)CC/C=C(\C)CC/C=C(\C)CC/C=C(\C)CC/C=C(\C)CC/C=C(\C)CC/C=C(\C)CC/C=C(\C)CCC=C(C)C)=C(C)C1=O | inactive: 4.04% | –
46 | CCOC(=O)N1CCC(NC(=O)CN2C(=O)CSc3ncccc32)CC1 | – | inconclusive [inhibitor, single point]
47 | Cc1cc(C)cc(-n2c(C)cc(/C=N/NC(=O)CN(c3c(C)cccc3C)S(C)(=O)=O)c2C)c1 | – | inconclusive [inhibitor, single point]
48 | CCOc1ccc(N(CC(=O)OC)S(=O)(=O)c2c(C)noc2C)cc1 | inactive: 2.28% | –
49 | C=CCn1c(COc2ccc(OC)cc2)nnc1SCn1nnc2ccccc2c1=O | – | inconclusive [inhibitor, partial curve]
50 | CCCCN1C(=O)C(NC(C)=O)c2cc(Br)ccc21 (centres undefined) | – | active: 0.178 µM

Row | SMILES | activity, negative = inhibition | Potency
51 | Nc1c(S(=O)(=O)c2ccccc2)cnc2c(-c3ccc(F)cc3)cnn12 | – | inconclusive [inhibitor, single point]
52 | COc1ccc(C)cc1NC(=S)Nc1ccccc1SC | – | inconclusive [inhibitor, single point]
53 | Cn1nc(C(=O)OCC(=O)Nc2ccc3ccccc3c2)c2ccccc2c1=O | inactive: -7.86% | –
54 | COc1ccc(N2CCN(C(=O)C3CCC(Cn4c(=S)[nH]c5ccccc5c4=O)CC3)CC2)cc1 (centres undefined) | – | inconclusive [inhibitor, partial curve]
55 | CCCOc1ccc(C(=O)C(c2ccccc2)N2CCOCC2)cc1 (centres undefined) | – | active: 12.6 µM
56 | CCc1ccc(CCC(=O)Nc2ccc(C(C)=O)cc2)o1 | – | inconclusive [inhibitor, single point]
57 | CCC(=O)N1c2ccc(S(=O)(=O)CCC(=O)NCCC3=CCCCC3)cc2CC1C (centres undefined) | – | inconclusive [inhibitor, single point]
58 | CCOC(=O)C(NC(C)=O)(Nc1ccc(S(=O)(=O)Nc2cc(C)nc(C)n2)cc1)C(F)(F)F (centres undefined) | – | active: 14.1 µM
59 | COc1cc(/C=C(\NC(C)=O)C(=O)Nc2ccccc2C)ccc1OC(C)=O | – | active: 28.2 µM
60 | CN(C)/C=C(/C(=O)c1ccc(Cl)cc1)S(=O)(=O)c1ccccc1 | – | inconclusive [inhibitor, partial curve]
61 | COc1ccc(C(=O)N2CCC(c3ccccc3)CC2)c(OC)c1OC | – | inconclusive [inhibitor, single point]
62 | Fc1ccc2[nH]c3c(N4CCN(C5CCCCC5)CC4)ncnc3c2c1 | – | inconclusive [inhibitor, partial curve]
63 | CC(C)CNS(=O)(=O)c1ccc(CCC(=O)N2CCN(c3ccc(F)cc3)CC2)cc1 | – | inconclusive [inhibitor, partial curve]
64 | O=C(NCc1ccccc1)C1=C[C@@H](c2ccc(Br)cc2)C[C@@H](OCCCCO)O1 | – | active: 25.1 µM
65 | COc1ccc(-n2ncc(Cl)c(Cl)c2=O)cc1 | – | active: 10 µM
66 | Cc1nnc(SC(C)C(=O)NCC2CCCO2)n1-c1ccccc1 (centres undefined) | – | inconclusive [inhibitor, single point]
67 | COc1ccc(-c2csc(NC(=O)CN3C(=O)CCC3=O)n2)c(OC)c1 | inactive: -9.84% | –
68 | Cn1c(=O)[nH]c(=O)c2c1nc(Br)n2C/C=N/Nc1ccccc1 | – | inconclusive [inhibitor, single point]
69 | CCCC(=O)c1cc2c(cc1NC(=O)c1ccccc1F)OCCO2 | – | inconclusive [inhibitor, single point]
70 | O=C1c2ccccc2C(=O)N1CCCCSc1nnnn1-c1ccccc1 | – | active: 0.178 µM
71 | C=CCSC[C@@H]1Nc2cc(Cl)c(S(N)(=O)=O)cc2S(=O)(=O)N1 | inactive: 4.57% [at 20.9 µM] | –
72 | C/C(CC(=O)Nc1ccc(C)c(Cl)c1)=N\NC(=O)Cc1cnc(N)s1 | inactive: 11% | –
73 | CCOc1ccc(C(=O)NC(=S)Nc2ccc(NC(=O)CC)cc2)cc1[N+](=O)[O-] | – | inconclusive [inhibitor, partial curve]
74 | CCOc1ccc(S(=O)(=O)N/N=C(\C)c2ccc(Cl)c(Cl)c2Cl)cc1 | – | inconclusive [inhibitor, full curve]
